Assay results reported in the supplement of paper PMC3334620.
In all, about 33,000 sequences were measured (“E-score (-0.5 to 0.5)”: median about -0.056, highest 2% from about 0.38 on). This is one part of the list.

Biological target: Stb4 (UniProt P50104)
Assay: PBM E-score (8-mer binding enrichment) (E-score (-0.5 to 0.5)); higher = stronger / more preferred TF binding; most listed sequences are background and not binding sites
Settings: protein concentration: 200 nM; construct: GST-DNA-binding domain
Method: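 Universal 'all 10-mer' protein binding microarrays (Agilent AMADID 015681) probed with GST-tagged S. cerevisiae TFs (full-length or DBD) made by in vitro transcription/translation (PURExpress), about 100-200 nM. Bound TF was detected with fluorescent anti-GST. Each ungapped 8-mer (which stands for itself and its reverse complement) is scored by the PBM enrichment score (E-score), a modified Wilcoxon-Mann-Whitney statistic from -0.5 to +0.5, computed with the Universal PBM Analysis Suite. Scale: above 0.35 generally sequence-specific binding.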

Sequence	PBM E-score
GTGGTGTA	-0.243
AATAAATA	0.183
GGTGAAAA	0.12
CGCAGAGA	-0.331
AGCTATTC	-0.0398
ACTTGGCT	-0.0855
CACCCGAG	0.448
GGCGCTCA	-0.0132
CTAACAGA	-0.114
GATCTCCC	0.117
ATGCAGTC	-0.253
ACAACAAT	-0.041
ACGGTTTC	0.0328
GCACATAC	0.0239
ACGTCTCA	-0.16
CACGTGAG	-0.164
CCGCAAAG	0.015
GCCCGATA	0.0754
CATGGATC	0.0289
AGTATGCC	0.0039
CTAGCTCA	-0.294
AGGAGCAA	-0.135
CTGGTCGA	-0.0446
GATAGTTA	0.0424
AATTCGAA	-0.191

Sequence	PBM E-score
ACGTCAGC	-0.0941
GCTATGAC	0.0527
AGCCAATC	0.0316
CCGTCACG	0.186
GAGTGGAA	-0.0792
AGGGCCAA	-0.242
CGTAGTAA	-0.109
ACAGACGA	-0.161
AATGCGAT	-0.127
AATCCAGG	-0.0803
TCCGAGCA	0.458
GAAGGCAA	-0.139
AAGATATG	-0.0486
ACCTAGCA	-0.0986
CCAAAGGC	-0.117
CCCGCCTA	0.161
GGATTAAC	0.0721
CGTCTAGC	-0.122
AATAAGAC	-0.141
AAGCCCGA	0.181
ATCGACCA	-0.13
CGAGAATC	0.109
ACACAATC	-0.12
TGATTGCA	-0.0923
ACCCGCAC	0.245

Sequence	PBM E-score
CAGGGATC	-0.0642
AGGACTCG	-0.112
GACAAATA	-0.0734
CAGACGGG	-0.00026
AAATCCCG	0.339
AGGATTGC	-0.0879
CGCCGCTC	0.133
ATGATATC	-0.075
CCCCACGC	-0.0539
ATGAGCCA	-0.103
ACACTTGG	-0.147
GGTGCCAA	-0.0442
ACTTCGAG	-0.0152
ATCGGCTC	0.279
AGAATTCC	0.221
AGACGTTA	-0.194
GACCTTGA	-0.303
AAACATCA	-0.127
AGGTAGGG	-0.283
TGTCAGAA	-0.224
ACGTTGAA	-0.0231
ATGCAACC	0.0516
GCTACAAA	-0.0318
CACTATTC	0.0249
AAGGATGA	-0.207

Sequence	PBM E-score
CATGCACG	-0.167
AAGTTCGG	0.421
AAGAGATG	-0.13
CTGGACCA	-0.0278
CTAACTTA	0.0614
GCACCTGC	-0.134
GAACCAGC	-0.015
ATAGTGTG	0.0766
CACGGATC	0.35
ACCTAAAT	0.12
GGGTCTAC	-0.00886
GGTCAGGA	-0.0388
CTGTTAGA	-0.16
CTTCCTAC	-0.232
GGATAGCA	0.242
TACCGACA	0.311
AAATGGTC	0.0442
AAAGCCAT	-0.0546
CGCATTCC	0.101
ATCTCAGC	0.0617
AACATCAG	-0.141
CACGGCAA	0.199
CACAGGGC	-0.272
CGTGCCCA	0.00213
TACGGAAA	0.322

Sequence	PBM E-score
ATCGCAGA	-0.337
ACTAAGCG	-0.0604
ACCCTAAC	-0.034
GTGAGTGA	-0.167
GACTACAC	-0.0519
AATGATAG	0.0475
ATCGTTTG	0.0206
GCCAAAGC	-0.121
GTTAATAA	0.0852
CTGTCGAC	-0.211
GCAAGACA	-0.0633
TGGCCCAA	-0.169
CCACGGCG	-0.0429
CCGGTGGA	0.225
AGTGATTG	-0.0135
ACGAGTGG	-0.122
ATTCTAGA	-0.113
ACGTCGTA	-0.164
ACGACACT	-0.149
AGCCCATC	-0.0127
ACAGTCGC	-0.315
GGGCAGCA	-0.17
CCGACCAA	0.248
AGGCTCGA	-0.126
CCACTCTC	0.0625

Sequence	PBM E-score
TAAAACCA	-0.2
ACGCGCTA	-0.0149
ATCTGCGC	-0.133
GCATGCAA	-0.123
CAGGCAAG	-0.255
CTTCAGTA	0.00858
CTGCAGCA	-0.169
CGCCGCCC	0.0841
AAGGTAGG	-0.0211
AACGGTCT	-0.192
AAACACTG	-0.0355
TGGTGAAA	-0.0565
CAGGTCAA	-0.193
GGACGCCC	0.14
CGATCATA	0.0494
GAGGAAAA	0.0135
CCAGGTCG	-0.247
TTAATGAA	-0.132
CTATCAAC	0.0348
GCTTCCCA	0.0205
AAAGCTTC	0.131
ATATCGAT	-0.0304
CTATGCTA	-0.202
ATGTTGAC	0.111
CAGGGGGA	-0.429

Sequence	PBM E-score
GAGTCTAC	-0.0685
CCTTGCGC	-0.163
CCTACACG	-0.216
CCAAAGGG	-0.157
ACAGCAGA	-0.197
GGACATCC	0.319
CAACTCTC	-0.0369
CCAATCCC	0.112
AAGTTAAC	0.0221
ACTATCTC	-0.0375
CGTATGTC	-0.0518
GTTTCTAA	0.049
CAGTGCAA	-0.156
GTTTACTA	-0.05
GGCGTTTA	0.0879
TACACCCA	-0.0256
CAAATTTG	0.137
ACCAGTCA	0.0783
ATAAATTA	0.0132
CACCATAC	0.0816
GTTGACGA	-0.0981
ATAATAGG	-0.0143
ATCATGTC	0.0861
ACTGTACT	-0.348
CAGAGGGG	-0.154

Sequence	PBM E-score
CTCTATTA	-0.18
AAGGCTAG	-0.127
ACCCTGTA	-0.129
CGTTGGCC	-0.00629
ATCGTTAA	0.0445
CTATTTTA	-0.133
CCTGGTAC	-0.249
AGTGGTCC	0.118
GTAATGTA	-0.14
CCAACAAG	-0.266
CGTTACAG	-0.198
AGGGTTCA	-0.219
GTTACACA	-0.234
ACATCTTA	-0.362
AATTTCAC	-0.0325
ACTCGTCT	-0.126
AAGCACTC	0.0131
GCGGAGCA	0.149
CGCATAGC	-0.0407
ACGAAGAT	-0.157
ACACTGTC	-0.0962
CCCACGAC	-0.111
TCGGGGAA	0.33
CCAACTCC	0.0984
AATTGAGC	-0.195

Sequence	PBM E-score
CGGGTTAG	0.148
AAGGTCAG	-0.247
AGTCCGCG	-0.00197
GAGTGAGC	-0.159
CGAGGGAA	-0.00481
CTATTGGC	-0.117
GGGAACAA	0.225
GATTAATA	-0.0505
GGGGAATA	-0.0405
TAAAACAA	-0.199
ATAACGAC	-0.152
CCAACGAC	-0.302
ACCAGACC	0.0485
GAGAATTA	0.103
AGAATCCA	-0.227
ACCTCCGG	0.327
CGACTCGC	-0.0581
GATTAGTA	-0.0413
AAGATATT	-0.00091
GTATGTTA	0.0426
GTACCGTA	0.0916
CAAACGTA	-0.0982
ACTGACCT	-0.2
CTCTATCA	-0.218
GATTGGGC	-0.0616

Sequence	PBM E-score
GGAAAACA	0.206
ATGTTTTG	-0.00578
CAGTACGG	0.11
AGGCTACC	-0.208
CGCTATAC	0.0197
GCGTCAGC	-0.172
GCTTGCCC	-0.294
GTCTCAGA	-0.238
CGATAAAC	-0.0461
GCGCGATA	-0.0647
AGGACAAA	-0.112
TGCAGAAA	-0.0408
CATCTATC	-0.064
AGTAGGTG	-0.0678
TCGGGACA	0.408
GACCCTGA	-0.205
AAACCGCA	-0.078
CCCGGTTC	0.206
CACGTTCA	-0.128
AAATTGCA	0.0349
GTCTACGA	-0.19
AGTTGTCC	0.0221
ATTGAGTC	-0.0275
CGGAACGA	0.399
GTCTAACA	-0.123

Sequence	PBM E-score
AGCTCCCC	-0.0767
ACATATGT	-0.11
ACAGCGGC	0.00559
CGATCTGA	0.0879
ACGGTGTC	0.0812
CTCTCCAG	-0.261
GACCGCTC	-0.0278
AAACCCGT	-0.00663
CCGGCTTA	0.305
GATTCAGA	-0.121
CCCTACAG	-0.208
ACGCTTCA	-0.307
ATCTTCAC	0.0599
AATCAGGC	-0.174
GTTAAAGA	-0.0182
CAGTAGCA	-0.11
GATTGAGC	-0.00802
ACCCTCCT	-0.0509
ATGGCGAG	-0.296
CAGCCGTA	-0.00843
ACGTACGA	-0.092
AGTATGGA	-0.0815
AGCCCGTG	-0.0636
CACGATGA	-0.14
GGGCCGGA	0.328

Sequence	PBM E-score
GGTGCAAA	0.00524
ACCAGACG	-0.203
ATACCAGA	-0.318
CACCCCCA	-0.163
CGAAAGGA	0.153
AAAGCACG	-0.129
GCATTCTA	-0.183
AAAGCGAG	0.0678
AAGACCTG	-0.146
GCGTGGGA	-0.156
CCAAACAC	-0.143
AACCGCTG	-0.173
AATACCAG	-0.161
ACGTGTCC	0.232
AGTTATCC	0.255
TGCGGGAA	0.344
CTAGCTGA	-0.184
AGTAAGAA	-0.147
AAGAGAAA	-0.206
GAAATTGA	0.134
GCTCAACC	-0.206
ACTGTGCG	-0.0381
ATTGTGTG	-0.17
ACCTCCGA	0.349
GCCCTCCA	-0.265

Sequence	PBM E-score
ATCTACCC	0.277
CCATTACG	-0.123
CACCCCCG	0.0697
CCCACACG	0.133
AGGTTTTG	-0.055
ACCGGTGA	0.0695
ACAACTCT	-0.155
ACAACTGA	-0.204
TGTCCTAA	-0.282
GAAGCTAC	-0.0288
AAATACCA	-0.208
AAAGCAAT	-0.128
AACACAAC	-0.0226
TACGTATA	-0.253
AAGGGACA	-0.312
GGCTTACA	0.0654
GGATGGCA	0.229
AGAGTATC	-0.0687
GGGGCGAA	-0.0471
CCGAAGCG	0.38
AAGGGAAA	-0.216
ACGAGGCC	-0.0545
ACTTCCAC	0.0233
GCTTTCAC	-0.148
ATGGTGTG	-0.239

Sequence	PBM E-score
AACGGGGG	-0.143
AGATCAAC	-0.177
AGGTACCA	-0.127
ATGTTGCG	-0.0733
CATACTAG	-0.0808
ATCTAAGC	-0.192
CCTGTATC	0.011
ATCCAACA	-0.029
GCCGAGTA	0.374
GGGATACC	0.184
ATAGTGTA	-0.172
CACAAGAA	0.0592
AAGCTTCT	-0.153
AGTTTTCA	0.0335
AGGATGGG	-0.0728
AAGCAAAC	-0.0582
ACGCGAGT	-0.00223
AGATATAG	-0.0259
AGGTCTAG	-0.202
